Source: ChEMBL document CHEMBL4888484, “Replenishing the malaria drug discovery pipeline: Screening and hit evaluation of the MMV Hit Generation Library 1 (HGL1) against asexual blood stage Plasmodium falciparum ,using a nano luciferase reporter read-out” (2022)
In all, about 150,000 compounds went through this assay and about 540 (0.36%) showed an effect of 50% or more. This is one part of the list.

These molecules were tested on Plasmodium falciparum (assay: Primary screen in NF54 nanoGlo assay, in single point, at 2uM, 72h; a lower Z score goes with more inhibition). Conditions: timepoint 72 hour.
Format: functional, Erythrocyte

Row | Compound | % Inhibition [%] | Z score
1 | CS(=O)(=O)NCc1ncnn1-c1cccc2c1CCC2 | -16 | 1.93
2 | Cc1ccc(S(=O)(=O)OCC2CCN(C(=O)OC(C)(C)C)CC2)cc1 | -6 | 0.69
3 | CC12CCC(C(=O)Nc3ccc4c(c3)OCCO4)(C(=O)C1=O)C2(C)C (stereo not drawn) | 8 | -1.1
4 | O=C1NC(c2ccc(-c3cccc(Cl)c3)o2)C(C(=O)c2ccc(F)cc2)C(O)(C(F)(F)F)N1 (stereo not drawn) | -12 | 2.31
5 | CCCCN1CCN(C[C@H]2COc3ccccc3O2)CC1 | -5 | 1.04
6 | COc1ccc(Cn2nnc(C(=O)N3CCNC(C)(C)C3)c2C)cc1 | 12 | -2.01
7 | Cn1cc(-c2cccc(NC(=O)N3C[C@@H]4CCS(=O)(=O)[C@@H]4C3)n2)cn1 | 35 | -3.98
8 | COc1ccccc1[C@H]1CCC[C@@H](C)N1CC(O)CN1CCCC1=O (stereo partly drawn) | -9 | 1.35
9 | O=C(NCC(=O)N1CCCC1)c1ccccn1 | 8 | -1.1
10 | Cc1cc(C)nc(N2CCN(c3cccs3)CC2)n1 | -12 | 1.19
11 | Cn1cnnc1N1CCN(C(=O)NCc2ccncc2OCC(F)F)CC1 | 0 | 0
12 | Cc1nc(C(=O)N2CCNC[C@H]2c2ccncc2)c(C)s1 | -10 | 1.06
13 | Cc1ccc(Cc2nc(N3CCN(C(=O)c4ccccc4Cl)CC3)c3c(C)nn(-c4ccc(F)cc4)c3n2)cc1 | -12 | 1.65
14 | COc1c(F)cc(-c2ccc(C(=O)N(C)C3CCOCC3)cc2)cc1F | 3 | -0.38
15 | CCCCOC(=O)Nc1nnc(CC(=O)NCc2ccccc2)s1 | -9 | 1.73
16 | c1nnnn1CCc1nc(C2CC2)n[nH]1 | -11 | 1.8
17 | O=C(NS(=O)(=O)Oc1ccc(F)cc1F)OC[C@@H]1CCCN2CCCCC12 (stereo partly drawn) | 3 | -0.35
18 | CC(C)(C)OC(=O)N=C(NC(=O)OC(C)(C)C)n1cccn1 | -17 | 1.44
19 | COc1cc2c(cc1OC)CN(C(=O)C[C@@H]1NC(=O)N(Cc3ccc(Cl)cc3)C1=O)CC2 | -12 | 1.48
20 | O=C1CO[C@H]2CN(C3CCCCC3)C[C@H]2N1c1ccccc1 | 4 | -0.51
21 | O=C(Cn1nc(-c2ccccc2)cc(NC(=O)c2ccccc2)c1=O)Nc1cccc(F)c1 | -4 | 0.68
22 | CCC1(C(=O)N2CCCC(COC)C2)CCCN1 (stereo not drawn) | -12 | 1.68
23 | COc1cc(CN)ccc1OC(C)(C)C | 2 | -0.36
24 | CCC(=O)N1CCCC[C@H]1c1nnc2n1CCN(S(=O)(=O)c1cccnc1)CC2 | 13 | -1.88
25 | COCCn1nnnc1[C@]1(N2CCCC2)CCN(C(=O)c2ccc3ncccc3c2)C1 | -2 | 0.29
26 | CC(C)C1CCN1C(=O)CC1CN(C(=O)c2ccco2)CCS1(=O)=O (stereo not drawn) | 0 | 0.01
27 | CC[C@@H](NC(=O)N1CCc2nc(C)[nH]c(=O)c2CC1)c1ccccc1 | -7 | 0.92

Row | Compound | % Inhibition [%] | Z score
28 | O=C(Nc1nncs1)[C@@H]1CCCCS1(=O)=O | -8 | 0.76
29 | CCCOc1ccc(N2C(=O)C3ON(c4ccccc4)C(CC(C)C)C3C2=O)cc1 (stereo not drawn) | 1 | -0.06
30 | COc1ccccc1OCc1nc(C2CC2)n(C(C)(C)C)n1 | -2 | 0.39
31 | COc1ncccc1C(=O)NCC1CC1 | 0 | -0.01
32 | CC(C)CN(CC(C)C)C(=O)[C@@H]1CCCO1 | -3 | 0.34
33 | Cc1cc(NC(=O)Cn2ncc3cccnc32)n(C2CCCC2)n1 | 1 | -0.1
34 | O=C(NCC(c1ccco1)N1CCCC1)N1CCCC(c2nc3ccccc3s2)C1 (stereo not drawn) | 2 | -0.3
35 | Cc1ccc2c(c1)OCCN2S(=O)(=O)c1cnnn1C | -8 | 0.84
36 | COc1ccc(C(=O)N2CC(=O)N3C[C@@H](OC)C[C@H]3C2)cn1 | -17 | 2.59
37 | O=C(CCn1c(Cc2ccccc2Cl)nc2cc(Cl)c(Cl)cc21)NCCN1CCOCC1 | -6 | 1.07
38 | Fc1ccc(-c2nnc(CN3CCCC4(C3)OCCO4)o2)cc1 | 0 | 0
39 | CN(CC(C)(CO)CO)C(=O)c1cc(C2CCCCC2)n[nH]1 | 4 | -0.45
40 | CO[C@H]1C[C@@H](CO)N(S(=O)(=O)c2c(Cl)cc(C)c(O)c2C)C1 | -3 | 0.64
41 | C[C@H]1CCC[C@@H](C(=O)O)N1C(=O)OC(C)(C)C | -17 | 1.7
42 | COc1ccc(NS(=O)(=O)c2ccc(NC(=O)CN(c3ccc(F)cc3)S(C)(=O)=O)cc2)cc1 | 36 | -1.14
43 | Cn1nc2c(c1-c1nc(COc3cccc(F)c3)nn1CCO)CCCC2 | -13 | 1.49
44 | CCc1nc(C)ccc1OCc1nc(C2CC2)n[nH]1 | 3 | -0.45
45 | CCn1cc(OCC(=O)N(C)CC(F)(F)F)cn1 | -7 | 1.31
46 | COC1(CNc2nc(C3CC3)nc3[nH]ccc23)CCOCC1 | -2 | 0.42
47 | CCC(=O)N(CC(=O)N1CCc2sccc2C1COc1ccc(F)cc1)CC1CCCO1 (stereo not drawn) | -8 | 0.82
48 | COc1ccc(OC)c(S(=O)(=O)N2CC(=O)N3C[C@@H](OC)C[C@H]3C2)c1 | -3 | 0.49
49 | CC(C)(O)CC(=O)N1CCC2(CCN(Cc3ccccc3)CC2)CC1 | 21 | -2.63
50 | O=C(O)CCC(=O)N1Cc2nc[nH]c2C[C@H]1c1nc(-c2ccc(C(F)(F)F)cc2)no1 | 7 | -0.85
51 | O=C(COc1ccccc1)N1CCC(F)(C(=O)NCc2ccccc2)CC1 | -6 | 0.8
52 | COc1ccc(-c2cn3c(n2)CO[C@@H](CNS(C)(=O)=O)C3)cc1 | -8 | 1.25
53 | Cc1cc(-n2cnnc2)ncc1-c1ccnn1C | -8 | 1.08
54 | COCCN(C(=O)c1cc(Cl)cc(Cl)c1O)[C@H]1CCOC1 | -1 | 0.19
